Data as given in patent US8034819B2, “Glucokinase activator” (Kyorin Pharmaceutical Co., Ltd., priority 2007, dated 2011).
Some results were stated once for a whole list of compounds, not compound by compound. At least one compound was matched to its structure with a doubt left.

Experiments:
human liver GK = target: T1, human liver GK (Homo sapiens, UniProt P35557); assay: Measurement of GK activity (NADH produced by G6PDH-coupled reaction); format: biochemical; settings: at 10 μM, compared with the wells that did not contain such compound; 5 mM D-glucose, 25° C.
T1 construct: His6 (C); made in house; host or cells: E. coli
T1 sequence (P35557 1-466 isoform P35557-2): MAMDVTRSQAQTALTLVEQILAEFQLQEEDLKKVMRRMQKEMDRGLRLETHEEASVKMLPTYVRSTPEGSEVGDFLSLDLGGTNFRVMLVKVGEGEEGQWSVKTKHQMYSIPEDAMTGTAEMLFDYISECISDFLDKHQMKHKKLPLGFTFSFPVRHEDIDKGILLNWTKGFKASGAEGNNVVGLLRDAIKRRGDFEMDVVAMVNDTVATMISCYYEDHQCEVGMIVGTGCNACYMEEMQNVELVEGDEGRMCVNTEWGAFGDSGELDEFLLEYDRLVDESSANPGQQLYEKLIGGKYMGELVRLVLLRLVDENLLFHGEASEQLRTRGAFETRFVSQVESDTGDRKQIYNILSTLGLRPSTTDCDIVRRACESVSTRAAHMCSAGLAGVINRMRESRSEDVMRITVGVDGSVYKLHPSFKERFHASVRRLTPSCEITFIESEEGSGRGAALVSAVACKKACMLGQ

ICR mice = assay: Hypoglycemic activity test; format: in vivo; settings: orally administered 30 mg/kg, average of the decrease in glucose at 0.5, 2 and 4 hours with respect to the pre-value
Experimental: Using ICR mice (male, 7 to 9 weeks, Charles River Laboratories Japan Inc.) the effects of each of the tested compounds on blood glucose levels were measured. Each compound was dissolved in a mixture of 60/40 of Gelucire 44/14 (trade name, manufactured by Gatefosse) and PEG 400, and the resulting mixture was orally administered (30 mg/kg, 10 mL/kg) to the mice, which had not been fed for two hours. Blood was collected by a blood collection tube coated with dipotassium ethylenediamine tetraacetate from the tail vein before administration (pre-value) and at points 0.5, 2, and 4 hours after administration. The collected blood was separated by centrifugation (4° C., 3,600×g, 3 minutes), to obtain blood plasma samples.
Each sample was diluted 5-fold with physiological saline, and the blood glucose level was measured using glucose CII-test Wako (trade name, manufactured by Wako Pure Chemical Industries Ltd.). 10 μL each of one of the samples, physiological saline, and 100 mg/dL of glucose standard solution (200 mg/dL of glucose standard solution diluted two-fold with physiological saline) were placed in each well of a 96 well flat bottom plate. Then, 150 μL per well of a developing solution was added, and the color was developed by standing for 5 minutes at 37° C. Measurement was carried out at OD 505 nm using an En Vision 2103 Multilabel Reader (trade name, manufactured by PerkinElmer). The decrease in Σ glucose from the decrease in glucose of each collected point with respect to the pre-value (average of the decrease in glucose of each collected point with respect to the pre-value) was calculated.

2-methoxyethyl 2-{(R)-2-[4-(cyclopropylsulfonyl)phenyl]-3-[(1α,3α,4α)-3,4-difluorocyclopentyl]propionamide}benzo[d]thiazol-6-carbonate [Compound 27]
human liver GK-activating effect (human liver GK): ≥ 200%

O=C(Nc1nccs1)C(C[C@H]1C[C@@H](F)[C@@H](F)C1)c1ccc(S(=O)(=O)C2CC2)cc1 (single isomer, unassigned; (+)) [Reference Example 3, (+)-2-[4-(Cyclopropylsulfonyl)phenyl]-3-[(1α,3α,4α)-3,4-difluorocyclopentyl]-N-(thiazol-2-yl)propionamide, reference compound]
decrease in Σ glucose (ICR mice; 30 mg/kg): ≤ 20%

O=C(Nc1nccs1)C(CC1CC(F)C(F)C1)c1ccc(S(=O)(=O)C2CC2)cc1 (single isomer, unassigned; (-)) [(−)-2-[4-(Cyclopropylsulfonyl)phenyl]-3-[(1β,3α,4α)-3,4-difluorocyclopentyl]-N-(thiazol-2-yl)propionamide, reference compound]
decrease in Σ glucose (ICR mice): ≤ 20%

O=C(Nc1nccs1)C(C[C@H]1C[C@@H](F)[C@@H](F)C1)c1ccc(S(=O)(=O)C2CC2)cc1 (single isomer, unassigned; (-)) [Compound 1, (−)-2-[4-(Cyclopropylsulfonyl)phenyl]-3-[(1α,3α,4α)-3,4-difluorocyclopentyl]-N-(thiazol-2-yl)propionamide]
human liver GK-activating effect (human liver GK): ≥ 200% | decrease in Σ glucose (ICR mice; 30 mg/kg): ≥ 35%

O=C(Nc1cnccn1)C(CC1CC(F)C(F)C1)c1ccc(S(=O)(=O)C2CC2)cc1 (stereo not drawn) [Compound 2, 2-[4-(cyclopropylsulfonyl)phenyl]-3-[(1α,3α,4α)-3,4-difluorocyclopentyl]-N-(pyrazin-2-yl)propionamide]
human liver GK-activating effect (human liver GK): ≥ 200% | decrease in Σ glucose (ICR mice): ≥ 35%

O=C(Nc1ncc(F)s1)C(CC1CC(F)C(F)C1)c1ccc(S(=O)(=O)C2CC2)cc1 (stereo not drawn) [Compound 3, 2-[4-(cyclopropylsulfonyl)phenyl]-3-[(1α,3α,4α)-3,4-difluorocyclopentyl]-N-(5-fluorothiazol-2-yl)propionamide]
human liver GK-activating effect (human liver GK): ≥ 200% | decrease in Σ glucose (ICR mice): ≥ 35%

Cn1ccc(NC(=O)C(CC2CC(F)C(F)C2)c2ccc(S(=O)(=O)C3CC3)cc2)n1 (stereo not drawn) [Compound 4, 2-[4-(cyclopropylsulfonyl)phenyl]-3-[(1α,3α,4α)-3,4-difluorocyclopentyl]-N-(1-methyl-1H-pyrazol-3-yl)propionamide]
human liver GK-activating effect (human liver GK): ≥ 200% | decrease in Σ glucose (ICR mice): ≥ 35%

O=C(Nc1ccc(Cl)cn1)C(CC1C[C@@H](F)[C@@H](F)C1)c1ccc(S(=O)(=O)C2CC2)cc1 (stereo partly drawn) [Compound 5, N-(5-chloropyridin-2-yl)-2-[4-(cyclopropylsulfonyl)phenyl]-3-[(1α,3α,4α)-3,4-difluorocyclopentyl]propionamide]
human liver GK-activating effect (human liver GK): ≥ 200% | decrease in Σ glucose (ICR mice): ≥ 35%

O=C(Nc1ccc(F)cn1)C(CC1CC(F)C(F)C1)c1ccc(S(=O)(=O)C2CC2)cc1 (stereo not drawn) [Compound 6, 2-[4-(cyclopropylsulfonyl)phenyl]-3-[(1α,3α,4α)-3,4-difluorocyclopentyl]-N-(5-fluoropyridin-2-yl)propionamide]
human liver GK-activating effect (human liver GK): ≥ 200% | decrease in Σ glucose (ICR mice): ≥ 35%

O=C(Nc1ccn(C(F)F)n1)C(CC1CC(F)C(F)C1)c1ccc(S(=O)(=O)C2CC2)cc1 (stereo not drawn) [Compound 13, 2-[4-(cyclopropylsulfonyl)phenyl]-3-[(1α,3α,4α)-3,4-difluorocyclopentyl]-N-[1-(difluoromethyl)-1H-pyrazol-3-yl)propionamide]
human liver GK-activating effect (human liver GK): ≥ 200% | decrease in Σ glucose (ICR mice): ≥ 35%

COCCOc1ccc2nc(NC(=O)C(CC3C[C@@H](F)[C@@H](F)C3)c3ccc(S(=O)(=O)C4CC4)cc3)sc2n1 (stereo partly drawn) [Compound 15, 2-[4-(cyclopropylsulfonyl)phenyl]-3-[(1α,3α,4α)-3,4-difluorocyclopentyl]-N-[5-(2-methoxyethoxy)thiazol[5,4-b]pyridin-3-yl)propionamide]
human liver GK-activating effect (human liver GK): ≥ 200% | decrease in Σ glucose (ICR mice): ≥ 35%

CCc1cnc(NC(=O)[C@H](CC2CC(F)C(F)C2)c2ccc(S(=O)(=O)C3CC3)cc2)cn1 (stereo partly drawn) [Compound 21, (R)-2-[4-(cyclopropylsulfonyl)phenyl]-3-[(1α,3α,4α)-3,4-difluorocyclopentyl]-N-(5-ethylpyrazin-2-yl)propionamide]
human liver GK-activating effect (human liver GK): ≥ 200% | decrease in Σ glucose (ICR mice): ≥ 35%

CSCCOc1cnc(NC(=O)[C@H](CC2CC(F)C(F)C2)c2ccc(S(=O)(=O)C3CC3)cc2)cn1 (stereo partly drawn) [Compound 22, (R)-2-[4-(cyclopropylsulfonyl)phenyl]-3-[(1α,3α,4α)-3,4-difluorocyclopentyl]-N-[5-[2-(methylthio)ethoxy]pyrazin-2-yl]propionamide]
human liver GK-activating effect (human liver GK): ≥ 200% | decrease in Σ glucose (ICR mice): ≥ 35%

COc1cnc(NC(=O)[C@H](CC2CC(F)C(F)C2)c2ccc(S(=O)(=O)C3CC3)cc2)cn1 (stereo partly drawn) [Compound 23, (R)-2-[4-(cyclopropylsulfonyl)phenyl]-3-[(1α,3α,4α)-3,4-difluorocyclopentyl]-N-(5-methoxypyrazin-2-yl)propionamide]
human liver GK-activating effect (human liver GK): ≥ 200% | decrease in Σ glucose (ICR mice): ≥ 35%

O=C(Nc1nc2cccnc2s1)[C@H](C[C@H]1C[C@@H](F)[C@@H](F)C1)c1ccc(S(=O)(=O)C2CC2)cc1 [Compound 28, (R)-2-[4-(cyclopropylsulfonyl)phenyl]-3-[(1α,3α,4α)-3,4-difluorocyclopentyl]-N-(thiazol[5,4-b]pyridin-2-yl)propionamide]
human liver GK-activating effect (human liver GK): ≥ 200% | decrease in Σ glucose (ICR mice): ≥ 35%

Cc1cnc(NC(=O)[C@H](CC2CC(F)C(F)C2)c2ccc(S(=O)(=O)C3CC3)cc2)s1 (stereo partly drawn) [Compound 31, (R)-2-[4-(cyclopropylsulfonyl)phenyl]-3-[(1α,3α,4α)-3,4-difluorocyclopentyl]-N-(5-methylthiazol-2-yl)propionamide]
human liver GK-activating effect (human liver GK): ≥ 200% | decrease in Σ glucose (ICR mice): ≥ 35%

CCc1nsc(NC(=O)[C@H](CC2CC(F)C(F)C2)c2ccc(S(=O)(=O)C3CC3)cc2)n1 (stereo partly drawn) [Compound 35, (R)-2-[4-(cyclopropylsulfonyl)phenyl]-3-[(1α,3α,4α)-3,4-difluorocyclopentyl]-N-(3-ethyl-1,2,4-thiazol-5-yl)propionamide]
human liver GK-activating effect (human liver GK): ≥ 200% | decrease in Σ glucose (ICR mice): ≥ 35%

O=C(Nc1ccon1)[C@H](CC1CC(F)C(F)C1)c1ccc(S(=O)(=O)C2CC2)cc1 (stereo partly drawn) [Compound 51, (R)-2-[4-(cyclopropylsulfonyl)phenyl]-3-[(1α,3α,4α)-3,4-difluorocyclopentyl]-N-(isoxazol-3-yl)propionamide]
decrease in Σ glucose (ICR mice): ≥ 35%

Cc1nsc(NC(=O)[C@H](CC2CC(F)C(F)C2)c2ccc(S(=O)(=O)C3CC3)cc2)n1 (stereo partly drawn) [Compound 64, (R)-2-[4-(cyclopropylsulfonyl)phenyl]-3-[(1α,3α,4α)-3,4-difluorocyclopentyl]-N-(3-methyl-1,2,4-thiazol-5-yl)propionamide]
decrease in Σ glucose (ICR mice): ≥ 35%

COc1nsc(NC(=O)[C@H](C[C@H]2C[C@@H](F)[C@@H](F)C2)c2ccc(S(=O)(=O)C3CC3)cc2)n1 [Compound 65, (R)-2-[4-(cyclopropylsulfonyl)phenyl]-3-[(1α,3α,4α)-3,4-difluorocyclopentyl]-N-(3-methoxy-1,2,4-thiazol-5-yl)propionamide]
decrease in Σ glucose (ICR mice): ≥ 35%

(R)-2-[4-(cyclopropylsulfonyl)phenyl]-3-[(1α,3α,4α)-3,4-difluorocyclopentyl]-N-[5-(2-methyl)ethoxypyrazin-2-yl)propionamide [Compound 20]
human liver GK-activating effect (human liver GK): ≥ 200%

(R)—N-{[4-(2,2-dimethyl)ethyl]thiazol-2-yl}-2-[4-(cyclopropylsulfonyl)phenyl]-3-[(1α,3α,4α)-3,4-difluorocyclopentyl]propionamide [Compound 32]
human liver GK-activating effect (human liver GK): ≥ 200%

isopropyl 2-{(R)-2-[4-(cyclopropylsulfonyl)phenyl]-3-[(1α,3α,4α)-3,4-difluorocyclopentyl]propionamide}benzo[d]thiazol-6-carbonate [Compound 26]
human liver GK-activating effect (human liver GK): ≥ 200%
